B1: anti-hIL18 ScFv-Fc (Fc fusion)
chain: EIQLQQSGPELVKPGASVKVSCKASGYSFTDYFIYWVKQSHGKSLEWIGDIDPYNGDTSYNQKFRDKATLTVDQSSTTAFMHLNSLTSEDSAVYFCARGLRFWGQGTLVTVSAGGGGSGGGGSGGGGSDIQMTQSPSSLSASLGERVSLTCRASQDIGSKLYWLQQEPDGTFKRLIYATSSLDSGVPKRFSGSRSGSDYSLTISSLESEDFVDYYCLQYASSPYTFGGGTKLAIKRSG[not shown - human IgG1 Fc]
notes: Tested as CHO supernatant; also called construct (6); anti-hIL-18 ScFv alone
B2: anti-hIL18 ScFv-hIL18Rα-Fc (Fc fusion)
chain: EIQLQQSGPELVKPGASVKVSCKASGYSFTDYFIYWVKQSHGKSLEWIGDIDPYNGDTSYNQKFRDKATLTVDQSSTTAFMHLNSLTSEDSAVYFCARGLRFWGQGTLVTVSAGGGGSGGGGSGGGGSDIQMTQSPSSLSASLGERVSLTCRASQDIGSKLYWLQQEPDGTFKRLIYATSSLDSGVPKRFSGSRSGSDYSLTISSLESEDFVDYYCLQYASSPYTFGGGTKLAIKRGGGGSGGGGSGGGGSCTSRPHITVVEGEPFYLKHCSCSLAHEIETTTKSWYKSSGSQEHVELNPRSSSRIALHDCVLEFWPVELNDTGSYFFQMKNYTQKWKLNVIRRNKHSCFTERQVTSKIVEVKKFFQITCENSYYQTLVNSTSLYKNCKKLLLENNKNPTIKKNAEFEDQGYYSCVHFLHHNGKLFNITKTFNITIVEDRSNIVPVLLGPKLNHVAVELGKNVRLNCSALLNEEDVIYWMFGEENGSDPNIHEEKEMRIMTPEGKWHASKVLRIENIGESNLNVLYNCTVASTGGTDTKSFILVRKADMADIPGHVFTRSG[not shown - human IgG1 Fc]
notes: Tested as CHO supernatant; also called anti-hIL-18 scFv-(G4S)3-hIL-18Rα-Fc; construct (2)
B3: hIL18Rα-Fc-anti-hIL18 ScFv (Fc fusion)
chain: CTSRPHITVVEGEPFYLKHCSCSLAHEIETTTKSWYKSSGSQEHVELNPRSSSRIALHDCVLEFWPVELNDTGSYFFQMKNYTQKWKLNVIRRNKHSCFTERQVTSKIVEVKKFFQITCENSYYQTLVNSTSLYKNCKKLLLENNKNPTIKKNAEFEDQGYYSCVHFLHHNGKLFNITKTFNITIVEDRSNIVPVLLGPKLNHVAVELGKNVRLNCSALLNEEDVIYWMFGEENGSDPNIHEEKEMRIMTPEGKWHASKVLRIENIGESNLNVLYNCTVASTGGTDTKSFILVRKADMADIPGHVFTRSG[not shown - human IgG1 Fc]EIQLQQSGPELVKPGASVKVSCKASGYSFTDYFIYWVKQSHGKSLEWIGDIDPYNGDTSYNQKFRDKATLTVDQSSTTAFMHLNSLTSEDSAVYFCARGLRFWGQGTLVTVSAGGGGSGGGGSGGGGSDIQMTQSPSSLSASLGERVSLTCRASQDIGSKLYWLQQEPDGTFKRLIYATSSLDSGVPKRFSGSRSGSDYSLTISSLESEDFVDYYCLQYASSPYTFGGGTKLAIKR
notes: No linker between components is stated; also called construct (3)
B4: anti-hIL18 ScFv-Fc-hIL18Rα (Fc fusion)
chain: EIQLQQSGPELVKPGASVKVSCKASGYSFTDYFIYWVKQSHGKSLEWIGDIDPYNGDTSYNQKFRDKATLTVDQSSTTAFMHLNSLTSEDSAVYFCARGLRFWGQGTLVTVSAGGGGSGGGGSGGGGSDIQMTQSPSSLSASLGERVSLTCRASQDIGSKLYWLQQEPDGTFKRLIYATSSLDSGVPKRFSGSRSGSDYSLTISSLESEDFVDYYCLQYASSPYTFGGGTKLAIKRSG[not shown - human IgG1 Fc]CTSRPHITVVEGEPFYLKHCSCSLAHEIETTTKSWYKSSGSQEHVELNPRSSSRIALHDCVLEFWPVELNDTGSYFFQMKNYTQKWKLNVIRRNKHSCFTERQVTSKIVEVKKFFQITCENSYYQTLVNSTSLYKNCKKLLLENNKNPTIKKNAEFEDQGYYSCVHFLHHNGKLFNITKTFNITIVEDRSNIVPVLLGPKLNHVAVELGKNVRLNCSALLNEEDVIYWMFGEENGSDPNIHEEKEMRIMTPEGKWHASKVLRIENIGESNLNVLYNCTVASTGGTDTKSFILVRKADMADIPGHVFTR
notes: No linker between components is stated; also called construct (4)
B5: hIL18Rα-Fc (Fc fusion)
chain: CTSRPHITVVEGEPFYLKHCSCSLAHEIETTTKSWYKSSGSQEHVELNPRSSSRIALHDCVLEFWPVELNDTGSYFFQMKNYTQKWKLNVIRRNKHSCFTERQVTSKIVEVKKFFQITCENSYYQTLVNSTSLYKNCKKLLLENNKNPTIKKNAEFEDQGYYSCVHFLHHNGKLFNITKTFNITIVEDRSNIVPVLLGPKLNHVAVELGKNVRLNCSALLNEEDVIYWMFGEENGSDPNIHEEKEMRIMTPEGKWHASKVLRIENIGESNLNVLYNCTVASTGGTDTKSFILVRKADMADIPGHVFTRSG[not shown - human IgG1 Fc]
notes: also called construct (5); hIL-18Rα alone
B6: hIL18Ra-anti-hIL18 ScFv-Fc (Fc fusion)
chain: CTSRPHITVVEGEPFYLKHCSCSLAHEIETTTKSWYKSSGSQEHVELNPRSSSRIALHDCVLEFWPVELNDTGSYFFQMKNYTQKWKLNVIRRNKHSCFTERQVTSKIVEVKKFFQITCENSYYQTLVNSTSLYKNCKKLLLENNKNPTIKKNAEFEDQGYYSCVHFLHHNGKLFNITKTFNITIVEDRSNIVPVLLGPKLNHVAVELGKNVRLNCSALLNEEDVIYWMFGEENGSDPNIHEEKEMRIMTPEGKWHASKVLRIENIGESNLNVLYNCTVASTGGTDTKSFILVRKADMADIPGHVFTRGGGGSGGGGSGGGGSEIQLQQSGPELVKPGASVKVSCKASGYSFTDYFIYWVKQSHGKSLEWIGDIDPYNGDTSYNQKFRDKATLTVDQSSTTAFMHLNSLTSEDSAVYFCARGLRFWGQGTLVTVSAGGGGSGGGGSGGGGSDIQMTQSPSSLSASLGERVSLTCRASQDIGSKLYWLQQEPDGTFKRLIYATSSLDSGVPKRFSGSRSGSDYSLTISSLESEDFVDYYCLQYASSPYTFGGGTKLAIKRSG[not shown - human IgG1 Fc]
notes: Tested as CHO supernatant; also called hIL-18Rα-(G4S)3-anti-hIL-18 scFv-Fc; construct (1)

The binders below were run against T1, human IL-18 (human, UniProt Q14116 37-193) (assay: SPR (BIAcore 2000), fusion captured by anti-human Fc, hIL-18 injected).
T1 construct: Soluble analyte injected over the captured fusion proteins in the BIAcore assay; also called hIL-18; hIL18

Question: For B1, which Kd is on record?
Answer: Its Kd is 0.193 nM.

Question: And the koff?
Answer: The koff was 4.65e-05 s⁻¹.

Question: What about the kon of the same binder?
Answer: Its kon is 241000 M⁻¹ s⁻¹.

Question: B2 was tested. Which Kd did it give?
Answer: Its Kd is 0.042 nM.

Question: And the koff?
Answer: Its koff is 1.61e-05 s⁻¹.

Question: And the kon?
Answer: Its kon is 387000 M⁻¹ s⁻¹.

Question: Which Kd does the source give for B3 here?
Answer: The Kd was 0.092 nM.

Question: And the koff?
Answer: Its koff is 3.7e-05 s⁻¹.

Question: What about the kon of the same binder?
Answer: Its kon is 404000 M⁻¹ s⁻¹.

Question: B4 was tested. Which Kd did it give?
Answer: Its Kd is 0.137 nM.

Question: And the koff?
Answer: The koff was 3.9e-05 s⁻¹.

Question: And the kon?
Answer: The kon was 285000 M⁻¹ s⁻¹.

Question: Which results are given for B5?
Answer: Kd: 4.18 nM; koff: 0.00653 s⁻¹; kon: 1.56e+06 M⁻¹ s⁻¹

Question: For B6, which Kd is on record?
Answer: Its Kd is 0.053 nM.

Question: And the koff?
Answer: The koff was 2.12e-05 s⁻¹.

Question: What about the kon of the same binder?
Answer: Its kon is 400000 M⁻¹ s⁻¹.

Reference: patent US20050074855A1 (Regeneron, published 2005)
